This note sets out measurements from PMC12040169 (PLOS Biology, 2025).

Some of the results follow.

The test system of this assay is T1, C. trachomatis L2/434/Bu expressing GFP (CTL2-GFP).
T1 construct: L2/434/Bu GFP intracellular growth in HeLa cells
More on the design: species or system HeLa; C. trachomatis total inclusion area by high-content imaging, normalised to DMSO. Conditions: total inclusion area; 28.5 h, 10 µM; inhibitor. Summed up:
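High-content imaging followed the bulk GFP/resorufin measurement: fixed, Hoechst-stained cells were scored for GFP inclusions and host nuclei per well. Total inclusion area and count served as growth proxies, nuclei number as the viability proxy. MIC calculation matched the bulk assay.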
Regarding `CC(C)NC(=O)C1CC2CCC1(C)C[C@]21NC(=O)c2ccccc2N1` (stereo partly drawn) [CBK284444], the “% of control remaining” value was 114.243.
The value for `CCn1c(SCC(=O)N/N=C/C(C)=C/c2ccccc2)nc2ccccc21` [CBK263178] was 71.1166.
Consider `COc1ccc(Nc2nnc(-c3ccc(C(=O)NCCO)cc3)c3ccccc23)cc1` [CBK263735], for which the “% of control remaining” value was 116.116.
Turning to `O=C(Nc1ccccc1C(F)(F)F)N(Cc1ccccc1C(F)(F)F)CC1CCNCC1` [CBK049744], the “% of control remaining” value is reported as 87.7591.
With `CC(C(=O)NCCc1cn(C)c2ccc(Cl)cc12)N1CCOCC1` (stereo not drawn) [CBK282263] the figure was 93.3982.
In the case of `COc1ccc(Cn2nc(N)c3ccccc32)cc1` [CBK093530], the “% of control remaining” value is 97.6364.
For `Cc1cc2c(o1)c1cnn(CC(=O)N(C)C)c(=O)c1n2C(C)C` [CBK284233], the “% of control remaining” value is given as 79.6418.
The value for `Cc1nc2ccc(C(=O)NCCCN3CC(C)CC(C)C3)cc2[nH]1` (stereo not drawn) [CBK283298] was 103.558.
As for `c1ccc2[nH]c(CN3CCC[C@@H]3CN3CCCC3)nc2c1` [CBK149102], the “% of control remaining” value is on record as 97.256.
For `CCN1CCN(C(=O)CN(C)S(=O)(=O)c2ccc(OC)c(Cl)c2)CC1` [CBK268091], the “% of control remaining” value is listed as 89.0445.
The value for `Cc1cc(NC(=O)C(C)N2CCN(S(=O)(=O)c3ccc(C4CCCCC4)cc3)CC2)on1` (stereo not drawn) [CBK295639] was 66.0829; that for `O=C(O)CCCCCN1C(=O)/C(=C/c2ccc(O)cc2)SC1=S` [CBK262835] was 76.4271.
With `CCCCOc1ccc(OC(=O)COCCOCCN2C(=O)c3ccccc3C2=O)cc1` [CBK155584] the figure was 89.2154; with `CCn1c(C)nc2cc(NC(=O)c3c4c(nn3C)CCCC4)ccc21` [CBK281831], 99.0161.
With `CCOc1ccc(/C=C2/NC(=O)NC2=O)cc1Br` [CBK098031] the figure was 106.726.
With `O=C(OCCN1CCOCC1)N1CCN(c2ccccc2)CC1` [CBK200242], the “% of control remaining” value amounted to 133.323.
With `COc1ccc(-c2noc(CN(C(=O)Cc3ccc(C)cc3)C(C)C)n2)cc1` [CBK269774] the figure was 79.4094; with `O=C(c1c(-c2ccccc2)nnc2ccccc12)N1CCN(CCO)CC1` [CBK066882], 95.5788.
For `c1nc(NCCCN2CCOCC2)c2c3c(sc2n1)CCCCC3` [CBK268236], the “% of control remaining” value is given as 129.706.
The value for `CN1CCC(N2CCN(C(=O)NC3CCc4ccccc43)CC2)CC1` (stereo not drawn) [CBK156110] was 110.845; that for `O=C(N[C@H]1CCN(Cc2ccccc2)C1)c1cnc(-c2ccccc2)c(-c2ccncc2)c1` [CBK036639] was 106.17.
For the compound `O=C1N=C(NCc2ccccc2F)OC12CCN(Cc1ccccc1)CC2` [CBK115688], the “% of control remaining” value was found to be 98.0682.
The value for `COc1cccc(CCN2C(=O)CC3(C2=O)C(=O)N(C)c2ccc(OC)cc23)c1` (stereo not drawn) [CBK075191] was 106.159; that for `CCCCCn1c(=O)c(Cc2ccccc2)c(O)c2ccccc21` [CBK291233] was 107.47.
The value for `CC(=O)N1CCC(NC(=O)c2cccc(C(N)=O)c2)CC1` [CBK297747] was 69.204; that for `C=C(C)Cn1c(Cc2ccccc2)nnc1SC(C)C` [CBK200083] was 76.7661; that for `O=C1NCC2(C/C=C/CCOc3ccccc31)CCNCC2` [CBK292178] was 106.958.
With `O=C(CCn1c(=O)oc2ccccc21)Nc1ccncc1` [CBK287466] the figure was 85.4187; with `O=C(NCc1nnc(-c2cccs2)o1)c1cccc2ccccc12` [CBK284636], 79.815.
For `Nc1nnnn1CC(=O)N/N=C/c1cc2c(cc1[N+](=O)[O-])OCO2` [CBK262187], the “% of control remaining” value is on record as 98.0575.
In the case of `Clc1ccc(C2(N3CCC(N4CCOCC4)CC3)CC2)cc1` [CBK282722], the “% of control remaining” value is 108.132.
The value for `COc1ccc(CNC(=O)CN2CCCCC2Cn2cccn2)cc1` (stereo not drawn) [CBK305379] was 86.2326.
As for `COc1ccc(NC(=O)CSc2nc(O)cc(=O)[nH]2)cc1` [CBK261747], the “% of control remaining” value is 90.8324.
Regarding `O=C(NCc1nnc(-c2cccs2)o1)C(c1ccccc1)c1ccccc1` [CBK286294], the “% of control remaining” value was 91.3179.
`CN(C)CC(C)(C)CNC(=O)c1ccccc1-n1cccc1` [CBK149600]: the “% of control remaining” value is on record as 105.725.
The value for `CCn1cc(C(=O)O)c(=O)c2cc(F)c(N3CCN(S(=O)(=O)c4ccc(C)cc4)CC3)cc21` [CBK265122] was 134.634; that for `Cc1ccc(C2(C(=O)NC(C)c3ccccn3)CCOCC2)cc1` (stereo not drawn) [CBK281903] was 71.9554; that for `O=C(O)c1cc(C=Cc2cn(Cc3ccccc3)nc2-c2cccnc2)nc2ccccc12` [CBK296988] was 111.747.
As to `COc1cc(CNc2cc(-c3ccco3)ncn2)cc(OC)c1OC` [CBK091181], the “% of control remaining” value was determined as 107.084.
The value for `CN(C)Cc1nc(C(=O)N2CCn3nc(C(O)C4CC4)cc3C2)cs1` (stereo not drawn) [CBK307489] was 95.1213; that for `Nc1ccccc1Sc1nc2ccccc2nc1C(F)(F)F` [CBK093776] was 121.492; that for `O=S(=O)(c1cccs1)n1ccc2c(CN3CCCC3)cccc21` [CBK116195T] was 83.924.
With `COCC(=O)NC(Cc1ccsc1)c1nc(C)c(C)s1` (stereo not drawn) [CBK284773] the figure was 117.195; with `O=C(O)COc1ccc(S(=O)(=O)N2CCc3ccccc32)cc1` [CBK269882], 63.4893; with `CC(=O)NCc1ccc(-c2ccc(C(=O)NCc3ccc4[nH]c(C)c(C)c4c3)c(C)n2)cc1` [CBK285888], 140.571.
The value for `Cc1cc(=O)c2ccccc2n1CC(=O)N1CCOC2(CCCC2)C1` [CBK306811] was 44.0097; that for `O=C1CC(c2ccc(C(=O)O)cc2)c2c(-c3ccc(Cl)cc3)n[nH]c2N1` (stereo not drawn) [CBK286684] was 73.7005; that for `CC(=O)Nc1ccc(CNC(=O)CN(C)Cc2cccc(O)c2)cc1` [CBK307660] was 75.5764.
As for `CSCCC(C(=O)O)N1C(=O)C(=Cc2ccc(-c3cccc(Cl)c3)o2)SC1=S` (stereo not drawn) [CBK296982], the “% of control remaining” value is listed as 117.943.
Turning to `OCCN(Cc1ccccc1)Cc1ccc(-c2ccccc2)cc1` [CBK261883], the “% of control remaining” value came out at 98.6461.
With `FC(F)(F)c1ccnc(Sc2cccc(Cl)c2)c1` [CBK115234], the “% of control remaining” value stood at 98.1106.
